About 17,000 (4.7%) of roughly 360,000 compounds were called active. Inconclusive means that the source gave no clear call. Such entries were picked first, then a sample of the others. No stated cut-off is given here; in the data, active means activity change below about -50%; inconclusive means mostly about -30% to -49%; inactive means weaker than that.
experiment: qHTS for Inhibitors of Inflammasome Signaling: IL-1-beta AlphaLISA Primary Screen; details: THP-1 LPS/ATP IL-1B secretion, 16 h; at 57.5 µM, stronger effect = lower value
In short: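 THP-1 cells pretreated 1 hr with compounds (up to 57.5 uM final), then stimulated with LPS (250 ng/mL final) plus ATP (1.25 mM final); secreted IL-1B measured by AlphaLISA after 16 hr, decreased signal indicating inhibition.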
On the % scale 0 is the no-effect control and ±100 the full control effect.

| SMILES | activity change |
| --- | --- |
| CC(=C/c1ccccc1)/C=C1/SC(N2CCOCC2)=NC1=O | inconclusive: -30.9% |
| Cc1cc(C)cc(NCC(=O)Nc2c(C)cccc2C)c1 | inconclusive: -37.2% |
| COc1ccc(OC)c(N2CC(O)(c3ccccc3)[N+]3=C2SCCC3)c1 (configuration not stated) | active: -51.2% |
| CCc1ccc2[nH]c(=O)c(C(c3nnnn3CC3CCCO3)N3CCCc4ccccc43)cc2c1 (configuration not stated) | inconclusive: -30.1% |
| CC(C)Oc1ccc(Br)cc1C(=O)N/N=C/c1c[nH]c2ccccc12 | inconclusive: -30.6% |
| CCOc1ccc(C(C)=O)cc1CSc1nnc(-c2cccs2)n1CC1CCCO1 (configuration not stated) | inconclusive: -46.6% |
| CC[C@@]1(c2ccccc2OC)C(=O)N(C(=O)OC)N1C(=O)OC | active: -87.3% |
| COc1ccc(C2=CC(=O)C[C@H](COCc3ccccc3)N(C(=O)OC(C)(C)C)O2)cc1 | inconclusive: -43.9% |
| O=C(NN1CCOCC1)c1ccc(Cl)cc1[N+](=O)[O-] | inactive: 7.19% |
| COc1cccc(/C=C/C(=O)OCC(=O)Nc2cc(C(F)(F)F)ccc2Cl)c1 | inactive: 0% |
| CCc1cc2c(=O)c(-c3ccc4c(c3)OCCO4)coc2cc1OS(C)(=O)=O | active: -86.6% |
| CSc1nc(C(C)C)ccc1CNC(=O)CC(C)c1ccccc1 (configuration not stated) | inactive: 18% |
| CC(C)C(c1nnnn1Cc1ccccc1)N1CCN(Cc2ccc3c(c2)OCO3)CC1 (configuration not stated) | inconclusive: -30.8% |
| CCn1c(SCC(=O)Nc2nccs2)nnc1-c1ccccn1 | inactive: -2.99% |
| COc1cccc2c1C(=O)c1ccc3ccccc3c1C2=O | inactive: 3.83% |
| COC(=O)[C@@]12C[C@@H](CC(=O)NCCCCc3ccccc3)C(=O)N(Cc3ccco3)C1=CCC(C)(C)C2 | inconclusive: -46.2% |
| Cc1cccc2nc(-c3ccco3)c(Nc3ccccc3)n12 | inactive: 22.2% |
| Cc1ccc(Nc2c(-c3ccc(N4CCOCC4)cc3)nc3ncccn23)c(C)c1 | inconclusive: -33.7% |
| CCOc1ccc2nc(NC(=O)CN3CCOCC3)sc2c1 | inconclusive: -31.5% |
| O=C(/C=C/Nc1ccccc1Oc1ccccc1)c1ccco1 | inconclusive: -36.1% |
| COc1ccc(CNC(=O)c2ccc3c(c2)N(C)CCS3)cc1 | inactive: -25.1% |

| SMILES | activity change |
| --- | --- |
| CCOc1ccc(CCN2C(=S)N([C@@H](CC(C)C)CN3CCCC3CN3C(=S)NC[C@@H]3Cc3ccc(O)cc3)C[C@@H]2Cc2ccccc2)cc1 (some centres not stated) | inconclusive: -36.1% |
| Cc1ccc(/C=C/C(=O)N2CC(C)CC(C)C2)o1 (configuration not stated) | inconclusive: -45.1% |
| Cc1ccc(S(=O)(=O)N(C)C[C@H]2Oc3cc(C#Cc4ccccc4)ccc3S(=O)(=O)N([C@H](C)CO)C[C@@H]2C)cc1 | inactive: 32.7% |
| Cc1nn(-c2ccccc2)c2nc(-c3ccccc3)cc(C(=O)N3CCOCC3)c12 | active: -73.6% |
| O=C1CCC(C(=O)O)N1 (configuration not stated) | inactive: -7.69% |
| O=C(Cn1nc([N+](=O)[O-])nc1Br)NC(c1ccccc1)c1ccccc1 | inconclusive: -45.9% |
| COc1ccc(CNC(=O)C(c2ccc(C)o2)N(C(=O)c2csnn2)c2ccc(C(C)C)cc2)cc1 (configuration not stated) | inconclusive: -31.4% |
| COc1ccc(C)cc1NC(=O)CCNC(=O)Cn1cnc2ccccc2c1=O | inactive: 2.27% |
| OCC[C@@H]1C[C@H](O)[C@@H](O)[C@@]2(CCCc3ccccc3O2)O1 | inactive: 14.4% |
| CCC1CCCCN1S(=O)(=O)c1ccc(NC(=O)c2snnc2C)cc1 (configuration not stated) | inconclusive: -33% |
| O=C(c1ccc(N2CCOCC2)c([N+](=O)[O-])c1)N1CCN(c2ccccc2F)CC1 | inconclusive: -32.2% |
| CN(CCc1ccccc1)C1CCCN(S(=O)(=O)CC(F)(F)F)C1 (configuration not stated) | inconclusive: -30.9% |
| C=CCn1c(-c2ccc(S(=O)(=O)N3CCOCC3)cc2)csc1=Nc1ccccc1 | inconclusive: -32.6% |
| COc1cccc(C(C(=O)NC2CCCCC2)N(C(=O)Cc2cccs2)c2ccc(-n3cnnn3)c(OC)c2)c1 (configuration not stated) | inactive: -13.1% |
| CC12CCC(=O)N1C(C(=O)Nc1nnc(SCc3ccccc3F)s1)CS2 (configuration not stated) | inconclusive: -30.4% |
| O=C(CNc1ccc(C(F)(F)F)cc1)Nc1cccc(S(=O)(=O)N2CCCCC2)c1 | active: -58.7% |
| CC(NS(=O)(=O)c1cn(C)c(=O)n(C)c1=O)c1ccccc1 (configuration not stated) | inactive: 5.77% |
| Cc1ccc(S(=O)(=O)N(C)C)cc1NC(=O)CSc1ncc(C(F)(F)F)cc1Cl | inconclusive: -37.8% |
| O=C(Nc1cccnc1)c1ccc([N+](=O)[O-])o1 | active: -91.7% |
| Cc1cc(C)c(O)c(-c2n[nH]c3c2C(c2cccc(O)c2)N(Cc2ccco2)C3=O)c1 (configuration not stated) | inconclusive: -41% |
| O=C(Nc1ccccc1)C1=C[C@H](c2coc3ccccc3c2=O)C[C@H](OCc2ccc(CO)cc2)O1 | inconclusive: -33.4% |

— PubChem BioAssay AID743279 (National Center for Advancing Translational Sciences (NCATS), 2014)
